# From a collection of fitness landscapes (doi:10.1038/s41467-024-54723-y)
# The full ranking holds about 18,000 sequences; the median of “TetR repression strength (sort-seq, GFP reporter)” is about 0.23, and the highest 2% start at about 0.68. The list shows a part of the results.
# Target: TetR (class B, Tn10) (UniProt P04483)
# Test: TetR repression strength (sort-seq, GFP reporter) (relative to tetO2 = 1); higher = stronger repression
# Details: E. coli
# Procedure, shortened: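 E. coli SIG10-MAX carried a low-copy plasmid library with eight randomized operator positions between a constitutive promoter and sfGFP, with TetR constitutively expressed. Cells grew 5 h at 37 °C in LB with 50 µg/mL chloramphenicol, then 10^6 cells were FACS-sorted into 13 fluorescence bins, each Illumina-sequenced. Repression strength is the top bin index plus one minus the read-weighted mean bin, divided by the wild-type operator value. Three independent transformations; variants with ≥30 reads in all replicates and CV ≤0.5 were averaged.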
# UniProt P04483, sequence (P04483 whole entry): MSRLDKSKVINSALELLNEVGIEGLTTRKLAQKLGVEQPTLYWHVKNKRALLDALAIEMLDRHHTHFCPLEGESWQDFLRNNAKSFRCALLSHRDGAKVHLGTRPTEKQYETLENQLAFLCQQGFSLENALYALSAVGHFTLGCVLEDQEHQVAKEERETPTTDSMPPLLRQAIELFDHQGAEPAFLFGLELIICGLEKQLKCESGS
row,Sequence,TetR repression strength
1,TCCCATGAAGTTCGAGAGA,0.193
2,TCCCAGATAGTATGGGAGA,0.0319
3,TCCCGTCGAGTCCAGGAGA,0.182
4,TCCCTTGCAGTTACCGAGA,0.874
5,TCCCGGCGAGTTGGTGAGA,0.255
6,TCCCACGGAGTGATCGAGA,0.294
7,TCCCGTATAGTTATTGAGA,0.175
8,TCCCGATGAGTTAAGGAGA,0.797
9,TCCCGGATAGTGAGGGAGA,0.134
10,TCCCTACCAGTGCGTGAGA,0.403
11,TCCCTATTAGTTCGCGAGA,0
12,TCCCAGTAAGTCTTGGAGA,0.148
13,TCCCTAACAGTGATGGAGA,0.278
14,TCCCAGGGAGTTTGTGAGA,0.0436
15,TCCCCGGTAGTTCGCGAGA,0.638
16,TCCCTGTGAGTATAAGAGA,0.264
17,TCCCTTCCAGTTAGGGAGA,0.24
18,TCCCCAGTAGTTGGAGAGA,0
19,TCCCTATCAGTGGTGGAGA,0.402
20,TCCCACGTAGTGTATGAGA,0.0186
21,TCCCCAGGAGTGATGGAGA,0.176
22,TCCCCGTTAGTCTCTGAGA,0.65
23,TCCCCGCTAGTCTTAGAGA,0.305
24,TCCCGGCTAGTTTGGGAGA,0.0849
25,TCCCCTCGAGTGTTTGAGA,0.92
26,TCCCTTTAAGTCTTGGAGA,0.194

row,Sequence,TetR repression strength
1,TCCCTGTTAGTGCCAGAGA,0.193
2,TCCCACACAGTCCTCGAGA,0.417
3,TCCCTGGAAGTAACAGAGA,0.235
4,TCCCGGTAAGTATGGGAGA,0.157
5,TCCCGTGCAGTTAGTGAGA,0.159
6,TCCCAATTAGTGTTAGAGA,0.421
7,TCCCAGCTAGTAAGAGAGA,0.254
8,TCCCAGCTAGTTGAGGAGA,0.255
9,TCCCAATCAGTACGTGAGA,0.213
10,TCCCTTACAGTACTCGAGA,0.456
11,TCCCACGCAGTAGTCGAGA,0.0565
12,TCCCCCTAAGTAGGGGAGA,0.239
13,TCCCGGGCAGTGCTCGAGA,0.298
14,TCCCGGAGAGTCTTGGAGA,0.34
15,TCCCACAAAGTGGCGGAGA,0.306
16,TCCCAATTAGTGCAAGAGA,0.301
17,TCCCACAAAGTAGGGGAGA,0.213
18,TCCCGATAAGTGGATGAGA,0.104
19,TCCCCGATAGTGCTGGAGA,0.253
20,TCCCGGAGAGTGCTGGAGA,1.07
21,TCCCGTTCAGTCGATGAGA,0.224
22,TCCCTTATAGTTCTTGAGA,0.311
23,TCCCCTGCAGTTTTAGAGA,0.352
24,TCCCGGCTAGTTGTCGAGA,0.171
25,TCCCGCGTAGTAGCTGAGA,0.301
26,TCCCACGAAGTTTGTGAGA,0.344

row,Sequence,TetR repression strength
1,TCCCTTTAAGTAACGGAGA,0.0871
2,TCCCGAGGAGTGAAGGAGA,0.26
3,TCCCCGAGAGTGTTCGAGA,0.172
4,TCCCACATAGTTTAAGAGA,0.187
5,TCCCGCGGAGTCGACGAGA,0.125
6,TCCCGGGTAGTGGTCGAGA,0.443
7,TCCCGACGAGTACCGGAGA,0.207
8,TCCCTCTTAGTCCGTGAGA,0.461
9,TCCCTCCCAGTGGCTGAGA,0.255
10,TCCCTCCTAGTGCAGGAGA,0.259
11,TCCCGATCAGTTCTTGAGA,0.252
12,TCCCTAGCAGTGGTGGAGA,0.27
13,TCCCGCTAAGTAGGTGAGA,0.017
14,TCCCTCGCAGTTCAAGAGA,0.363
15,TCCCGTTCAGTGCGAGAGA,0.0532
16,TCCCCTTGAGTATGCGAGA,1.05
17,TCCCCGCCAGTTGATGAGA,0.349
18,TCCCCGCCAGTCCAGGAGA,0.104
19,TCCCTATCAGTGGCCGAGA,0.724
20,TCCCCGTGAGTCTAGGAGA,0.101
21,TCCCGTGCAGTTTAAGAGA,0.227
22,TCCCACATAGTCGGGGAGA,0.245
23,TCCCGGACAGTGTGTGAGA,0.2
24,TCCCGGTCAGTTAGGGAGA,0.281
25,TCCCGCGAAGTGGAGGAGA,0.14
26,TCCCAGGGAGTCGACGAGA,0.223

row,Sequence,TetR repression strength
1,TCCCTGTCAGTGCTGGAGA,0.361
2,TCCCGGGAAGTAAGAGAGA,0.172
3,TCCCACTTAGTACGGGAGA,0.24
4,TCCCGTAGAGTTGATGAGA,0.551
5,TCCCCACTAGTTTAAGAGA,0.398
6,TCCCGCCGAGTTGGAGAGA,0.274
7,TCCCTCAGAGTCTCGGAGA,0.104
8,TCCCGGACAGTAAGCGAGA,0.622
9,TCCCATAAAGTTTTTGAGA,0.344
10,TCCCGGTGAGTTCCTGAGA,0.152
11,TCCCGTGAAGTTAATGAGA,0.401
12,TCCCTACTAGTTCGAGAGA,0.354
13,TCCCTTTTAGTGATCGAGA,0.247
14,TCCCGGGAAGTGTCTGAGA,0.355
15,TCCCCGGAAGTTTGAGAGA,0.218
16,TCCCTTTTAGTGTCCGAGA,0.444
17,TCCCGGTGAGTCGGCGAGA,0.2
18,TCCCGTTGAGTAGTCGAGA,0.0303
19,TCCCCGTAAGTATTGGAGA,0.247
20,TCCCTCTAAGTAAAAGAGA,0.183
21,TCCCTTAGAGTGTTGGAGA,0.108
22,TCCCGGTGAGTAGCGGAGA,0.208
23,TCCCGTGGAGTAGGCGAGA,0.22
24,TCCCCATAAGTTGGGGAGA,0.367
25,TCCCCTTGAGTGACCGAGA,0.344
26,TCCCCGGGAGTTGATGAGA,0.115

row,Sequence,TetR repression strength
1,TCCCTGAAAGTGACAGAGA,0.489
2,TCCCGTTGAGTGAGGGAGA,0.397
3,TCCCACCCAGTCTCAGAGA,0.341
4,TCCCAAGAAGTTGCCGAGA,0.137
5,TCCCGGATAGTGGGTGAGA,0.0875
6,TCCCTATTAGTACTGGAGA,0.291
7,TCCCTCGGAGTTATGGAGA,0.41
8,TCCCCGCAAGTGATAGAGA,0.554
9,TCCCCTTCAGTTGATGAGA,0.415
10,TCCCGGCAAGTTAGCGAGA,0.224
11,TCCCACCGAGTAGTCGAGA,0.416
12,TCCCCGTCAGTTAGTGAGA,0.194
13,TCCCATGCAGTTAGGGAGA,0.281
14,TCCCTACGAGTGGTGGAGA,0.304
15,TCCCTGCTAGTTCTAGAGA,0.243
16,TCCCGGGGAGTATTAGAGA,0.216
17,TCCCTGCAAGTCCTTGAGA,0.328
18,TCCCTATGAGTCTTGGAGA,0.203
19,TCCCGGTCAGTGGCGGAGA,0.153
20,TCCCTTGCAGTTATAGAGA,0.461
21,TCCCTTTAAGTTCTGGAGA,0.226
22,TCCCCGGGAGTGGCGGAGA,0.0763
23,TCCCCACTAGTGTTAGAGA,0.259
24,TCCCACTCAGTATGTGAGA,0.108
25,TCCCTGCTAGTACTCGAGA,0.211
26,TCCCGCTTAGTGCGCGAGA,0.234
